Experimental data from PubChem BioAssay AID1671189 (National Center for Advancing Translational Sciences (NCATS), 2021).
In all, about 1,100 compounds went through this assay and about 70 (6%) were called active. Inconclusive results, whose numbers are uncertain, are shown with a selection of clear calls. Calls come from the whole dose curve; as a rule, active = well fitted curve in the direction sought with a large enough effect; inconclusive = small, poorly fitted or top-dose-only effect, or another doubt; inactive = no such curve, though single readings can be large or run the other way. Where the call is inconclusive, the potency comes from a doubtful curve fit.

What follows are compounds tested against Polyunsaturated fatty acid lipoxygenase ALOX12 (Homo sapiens) (UniProt P18054) (assay: Confirmatory qHTS assay for inhibitors of human arachidonate 12S-lipoxygenase (ALOX12): Round 2). Conditions: purified human 12-LOX, xylenol orange absorbance; activity change, negative = inhibition: at 125 µM (top of the series).
From the text: Assay Provider: Theodore R. Holman Ph.D. University of California, Santa Cruz, California Human lipoxygenase 12hLO is a member of the closely related lipoxygenase family of enzymes which catalyze the site-specific oxidation of arachidonic acid to various hormone precursor molecules and as such is a candidate for drug development in a variety of disease areas, such as cancer and inflammation. Inhibition of 12hLO activity was screened by utilizing arachidonic acid as a substrate. The extent of hydroperoxide product formation was measured by a secondary chromogenic reaction in which xylenol orange (XO, Sigma-Aldrich, cat. number 39,818-7) reacts with the ferric ions produced from the reaction between the hydroperoxide and ferrous ions. The Fe (III)-XO complex is characterized with red-shifted absorbance at 560 nm. A purified preparation of human 12hLO was supplied by Dr. Holman laboratory, University of California, Santa Cruz.
PROTOCOL TABLE SEQUENCE No. (e.g., 1, 2, 3, etc.); […] (e.g., Cells, Incubation, Reagent, etc.); VALUE; DESCRIPTION 1; Enzyme; 3 uL; 150 nM 12hLO enzyme solution dispensed in 1536-well Greiner black, clear bottom plates. 2; Compound; 23 nL; compounds and controls were added. 3; Incubate; 15 min; room temperature. 4; Substrate; 1 uL; 40 uM arachidonic acid (final concentration). 5; Incubate; 30 min; room temperature. 6; Reagent; 4 uL; Fe-XO solution was added to each well. 7; Incubation; 30 min; room temperature 8; Detector; absorbance; Read 1 at 405 nm absorbance using ViewLux (PerkinElmer) CCD imager. 9; Detector; absorbance; Read 2 at 573 nm absorbance using ViewLux (PerkinElmer) CCD imager. NOTES (numbers refer to sequence above) 1; 150 nM 12hLO (final concentration) in buffer solution (25 mM Hepes, 0.01% Triton X-100, pH 7.0) was dispensed in columns 1, 2, 5-48. Column 1 is neutral (100% activity). Buffer only was dispensed in columns 3 and 4 as no enzyme negative controls. The plates were covered with metal lids with gas-exchange holes. 2; Compounds were pin transferred via a Kalypsys Pin Tool (Wako USA) in column 5 - 48. Control compound was transferred in column 2, titration of nordihydroguaiaretic acid (NDGA, Sigma-Aldrich, N5023) with top concentration of 20 mM in DMSO then 1:3 dilution in duplicate. Dilution factor of 23 nL into 4 uL final assay volume. 3; Covered assay plates were incubated for 15 min at room temperature. 4; Substrate was added to start the reaction; 40 uM arachidonic acid (Sigma-Aldrich, St. Louis, MO) was dispensed throughout the plate. 6; Chromogenic detection reagent solution (divalent iron/xylenol orange, Fe-XO) was added to each well: 200 uM xylenol orange, 300 uM ferrous ammonium sulfate prepared freshly in 50 mM sulfuric acid. 8, 9; Two absorbance readouts were obtained at 405 nm and at 573 nm using a ViewLux high-throughput CCD plate imager (PerkinElmer). The 573 to 405 (Read 2 / Read 1) absorbance ratio was used to compute reaction progress.
% is set by controls: 0 for no effect and ±100 for the full control effect; potency is the fitted concentration of half-maximal effect.

Sequence of UniProt P18054 (P18054 whole entry, looked up): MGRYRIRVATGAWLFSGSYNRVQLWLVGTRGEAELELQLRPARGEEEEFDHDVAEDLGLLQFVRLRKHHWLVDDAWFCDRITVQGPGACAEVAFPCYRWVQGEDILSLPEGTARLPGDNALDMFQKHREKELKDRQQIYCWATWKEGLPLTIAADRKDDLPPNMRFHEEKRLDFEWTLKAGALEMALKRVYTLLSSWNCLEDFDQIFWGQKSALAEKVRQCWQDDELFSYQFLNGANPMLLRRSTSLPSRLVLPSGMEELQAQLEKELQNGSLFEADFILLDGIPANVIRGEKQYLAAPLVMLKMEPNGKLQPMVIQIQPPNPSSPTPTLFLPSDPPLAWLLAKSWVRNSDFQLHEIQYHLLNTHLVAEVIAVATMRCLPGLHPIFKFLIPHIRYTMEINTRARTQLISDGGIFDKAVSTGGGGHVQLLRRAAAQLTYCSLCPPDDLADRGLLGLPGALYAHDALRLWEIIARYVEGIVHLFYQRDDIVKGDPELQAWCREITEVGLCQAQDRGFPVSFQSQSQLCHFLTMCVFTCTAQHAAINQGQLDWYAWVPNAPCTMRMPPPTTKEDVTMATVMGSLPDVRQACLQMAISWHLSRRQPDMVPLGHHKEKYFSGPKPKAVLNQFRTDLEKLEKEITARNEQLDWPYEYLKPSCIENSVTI

Potency, inactive:
O=C(c1ccc(C(F)(F)F)cc1)N1CCC2(CC1)C(=NC1CCCCC1)NC(=O)N2c1cc(F)cc(F)c1, COc1ccc(N=C2S[C@H]3[C@H]([C@@H](O)[C@H](O)C[C@@H]3C(N)=O)N2CC2CCCCC2)cc1, CCOCCNc1ncnc2c1CN(C1CCNCC1)C(=O)CN2C, COc1cccc(CC(=O)N2CC(CO)C3(CCNCC3)C2)c1 (stereo not drawn), O=C(N1CCOCC1)N1CCCC1c1nnc2n1CCNC2 (stereo not drawn), CC1CCCN(c2ncnc3c2CN(C2CCCNCC2)C(=O)CN3C)C1 (stereo not drawn), Cc1ccc2nc(C3CCCN(Cc4ccccc4)C3)[nH]c(=O)c2c1 (stereo not drawn), Cc1cccc(-c2cnc3n[nH]c(-c4ccc5c(c4)OCO5)c3n2)c1, Cc1nc(N2CCC(C(=O)NCc3ccc(C(C)C)cc3)CC2)cc(C(F)(F)F)n1

Potency, active:
O=C(c1ccc(Cl)cc1)N1CC2(CCN(Cc3ccc(Cl)cc3)C2)Cc2ccccc21 (stereo not drawn) 1.56 µM, O=C1NCc2ccccc2CC12CCN(Cc1ccc(Oc3ccccc3)cc1)C2 (stereo not drawn) 55.5 µM, CC(=O)NC(C)c1cc(Cl)c2cccnc2c1O (stereo not drawn) 6.85 µM

Potency, inconclusive:
N#Cc1cccnc1-c1cccc(C(=O)O)c1 90.3 µM [inhibitor, partial curve], O=C(Nc1ccc(Cl)cc1Cl)c1c[nH]c2cccnc12 19.5 µM [inhibitor, partial curve], CC(=O)c1ccc(NC(=O)N2C[C@@H]3C[C@H](C2)c2ccc(NC(=O)Nc4cccc(F)c4)c(=O)n2C3)cc1 35.5 µM [inhibitor, partial curve], COc1cccc(-c2ccc(CN3CCCC(c4nc5ccc(C)cc5c(=O)[nH]4)C3)cc2)c1 (stereo not drawn) 44.1 µM [inhibitor, partial curve], Clc1ccc(CN2CC[C@H](c3nc4cc(Cl)ccc4o3)C2)cc1 10 µM [inhibitor, full curve], COCCNC(=O)c1cc(C2CC2)nc2c1c(C1CCNCC1)nn2C 31.2 µM [inhibitor, partial curve, poor fit], CCn1ccnc1C1CCN(C(=O)CC2COCCN2)CC1 (stereo not drawn) 0.199 µM [inhibitor, full curve, poor fit], Cc1ccsc1C(=O)N1CCC2(CC1)NC(=O)N(c1cccc(Cl)c1)N2 8.91 µM [inhibitor, full curve], CCN1CCCCC12Cc1ccccc1CN(C(=O)CCCN(C)C)C2 (stereo not drawn) 4.41 µM [inhibitor, full curve], Cc1ccc(C(=O)N[C@H]2CO[C@H]3[C@@H]2OC[C@@H]3Nc2nccc(-c3ccc4c(c3)OCO4)n2)cc1 15.8 µM [inhibitor, full curve], CN1CCN(c2cc(=O)c3ccnc(-c4ccc([S+](C)(=O)[O-])cc4)c3o2)CC1 20 µM [inhibitor, partial curve], COc1ccc(-c2cc(NCCO)nc3[nH]ccc23)cc1C(F)(F)F 15.8 µM [inhibitor, full curve], O=C(O)c1ccc(-c2cccnc2)cc1 160 µM [inhibitor, single point], CCOc1ccc2[nH]c(=O)c(CN(Cc3nnnn3Cc3ccco3)C3CCCCC3)cc2c1 27.3 µM [inhibitor, partial curve, poor fit], CC(C)c1nc2c(c(-c3ccc(Cl)cc3)n1)CCN(Cc1ccc(F)cc1)CC2 62.2 µM [inhibitor, partial curve], CCN1CCCC12Cc1ccccc1CN(C(=O)c1ccccc1)C2 (stereo not drawn) 24.8 µM [inhibitor, partial curve], O=C1NCc2ccccc2CC12CCN(Cc1cccc(C(F)(F)F)c1)C2 (stereo not drawn) 62.2 µM [inhibitor, partial curve, poor fit], CCc1ccc(CN2CCCC23Cc2ccccc2CNC3=O)cc1 (stereo not drawn) 69 µM [inhibitor, single point], NCc1ccc(-c2ccc(OC(F)(F)F)cc2)cc1 138 µM [inhibitor, single point], CNc1oc(-c2cccc3ccccc23)nc1C(=O)OC 17.2 µM [inhibitor, partial curve], CC(=O)Nc1cccc(-c2cnc3n[nH]c(-c4ccc5c(c4)OCO5)c3n2)c1 0.224 µM [inhibitor, full curve], O=C1NCc2ccccc2CC12CCCN(Cc1cccc(Cl)c1)C2 (stereo not drawn) 27.5 µM [inhibitor, single point], O=C1NCc2ccccc2CC12CCN(Cc1ccc(Br)s1)CC2 98.7 µM [inhibitor, single point], CCc1nc2c(c(-c3ccc(OC)cc3)n1)CCN(Cc1ccc(C(F)(F)F)cc1)CC2 12.4 µM [inhibitor, partial curve, poor fit], COc1ccc(CN2C(=Nc3ccc(Cl)cc3)S[C@H]3[C@@H]2[C@@H](O)[C@H](O)C[C@@H]3C(N)=O)cc1 28.2 µM [inhibitor, partial curve], CCn1c2ccccc2c2cc(CN3CCN(Cc4ccc(Br)cc4)CC3)ccc21 62.1 µM [inhibitor, partial curve], O=C(OCC#CCSc1nnc(-c2c[nH]c3ccccc23)o1)c1ccc(F)cc1 13.7 µM [inhibitor, partial curve], Fc1ccc(OC2CN(Cc3cccc4ccccc34)C2)cc1F 77.5 µM [inhibitor, partial curve, poor fit], Cc1ccc2nc(C3CCN(Cc4ccc(-c5cccs5)cc4)CC3)[nH]c(=O)c2c1 62.2 µM [inhibitor, partial curve], Fc1ccc(N2CCCN(CC3[C@H]4CNC[C@@H]34)CC2)cc1 (stereo partly drawn) 0.631 µM [inhibitor, full curve], CC1CCCCC1Nc1ncnc2c1CN(C1CCCNCC1)C(=O)CN2C (stereo not drawn) 0.007 µM [inhibitor, full curve, poor fit], CNc1nc2c(s1)C(c1ccc(Cl)cc1)CC(=O)N2 (stereo not drawn) 14.1 µM [inhibitor, partial curve], Cc1n[nH]c(C)c1C(N)C(=O)N1CCN(Cc2ccccc2C#N)CC1 (stereo not drawn) 0.0794 µM [inhibitor, full curve], CC(=O)NC1(C)CCN(Cc2cccc(-c3ccc4ccccc4c3)c2)C1 (stereo not drawn) 17.8 µM [inhibitor, partial curve], O=C(Cc1cccs1)N1CCN(c2cc(C(F)(F)F)ncn2)CC1 20 µM [inhibitor, partial curve], CS(=O)(=O)c1cnc(NCCCn2cccn2)nc1C1CCCNC1 (stereo not drawn) 0.316 µM [inhibitor, full curve, poor fit], Cc1ccc(C(=O)N2CCc3nc(C4CC4)nc(-c4ccc(Cl)cc4)c3C2)cc1 62.2 µM [inhibitor, partial curve], CNc1oc(-c2c[nH]c3ccccc23)nc1C#N 19.3 µM [inhibitor, partial curve], Cn1ncc2c(C(=O)NCCc3ccc(Cl)cc3)cc(-c3ccc([S+](C)(=O)[O-])cc3)nc21 3.5 µM [inhibitor, full curve, poor fit], O=C(OCC#CCSc1nnc(-c2cccc(F)c2)o1)c1ccc(F)cc1 15.3 µM [inhibitor, partial curve, poor fit], Cc1noc([C@H]2CCN(C(=O)Nc3ccc4c(c3)OCCO4)C[C@H]2NC(=O)C2CC2)n1 39.8 µM [inhibitor, single point], O=C1NCc2ccccc2CC12CCN(Cc1cnc3ccccc3c1)C2 (stereo not drawn) 62.2 µM [inhibitor, partial curve], Cc1ccc(-c2csc(=Nc3ccccc3)n2Cc2ccc3c(c2)OCO3)cc1 49.3 µM [inhibitor, partial curve, poor fit], Cn1nc(C2CCNC2)c2c(C(=O)NCc3cccs3)cc(C3CC3)nc21 (stereo not drawn) 69.8 µM [inhibitor, partial curve], O=C1NCc2ccccc2CC12CCCN2Cc1ccc(Cl)cc1 (stereo not drawn) 86.9 µM [inhibitor, single point], O=C(c1ccc2c(c1)OCO2)N1CCc2nc(C3CC3)nc(-c3ccc(Cl)cc3)c2C1 49.4 µM [inhibitor, partial curve, poor fit], O=C1NCc2ccccc2CC12CCCN2Cc1ccc(Cl)s1 (stereo not drawn) 54.8 µM [inhibitor, partial curve]

Activity change, negative = inhibition, inconclusive:
CCc1nc2c(c(-c3ccc(OC)cc3)n1)CN(C(=O)c1ccc(C)cc1)CC2 -32.9% [inhibitor], C[C@H](C(=O)N1Cc2ccccc2CC2(CCN(Cc3ccncc3)C2)C1)c1ccccc1 (stereo partly drawn) -33.1% [inhibitor], N#Cc1cccc(CN2CCCC(c3nc4ccc(F)cc4c(=O)[nH]3)C2)c1 (stereo not drawn) -31.5% [inhibitor], c1ccc2c(c1)CCN2C1CN(Cc2cccc3ccccc23)C1 -30.7% [inhibitor]
